Reference: PubChem BioAssay AID686971 (National Center for Advancing Translational Sciences (NCATS), 2013)
Among all 360,000 compounds or so, about 7,500 (2.1%) were called active. The inconclusive results got no clear call from the source; some entries with a clear call stand among them for comparison. Calls follow the shape of the dose curve; as a rule, active = well fitted cell-killing curve with a large enough effect; inconclusive = small, poorly fitted or top-dose-only effect, or effect the other way, or another doubt; inactive = no such curve, though single readings can be large or run the other way. No potency is given beside an inconclusive call; the fits are too rough.

Assay: qHTS for induction of synthetic lethality in tumor cells producing 2HG: qHTS for the HT-1080-IDH1KD cell line;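 as to activity, negative = toxicity: 0% = DMSO wells and -100% = cell-free medium wells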
Conditions: HT-1080 IDH1 knockdown viability, ATP luminescence, 48 h; activity, negative = toxicity: at 46.1 µM (top of the series) unless noted
In short: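 % activity derives from luminescence (CellTiter-Glo), normalised to DMSO and no-cell wells. HT-1080-IDH1KD cells, 750/well, had 48 h compound exposure at 37 °C.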
Potency is read from the fitted curve at half-maximal effect; tags tell the direction and shape of the fitted curve.

| Structure (SMILES) | Potency | activity, negative = toxicity |
| --- | --- | --- |
| C/C(=N\NC(=O)c1cc2ccccc2cc1O)c1ccc(C)o1 | inconclusive [cytotoxic, partial curve] |  |
| CCCCC1Cc2[nH][nH]c(=O)c2C(c2ccc(F)cc2)O1 (centres undefined) | active: 25.9 µM |  |
| CC1=C(C(=O)N(C(C)C)C(C)C)CC(CC(=O)NCCN2CCOCC2)C(=O)N1CCCN1CCCC1=O (centres undefined) |  | inactive: 11.8% |
| Fc1cc2[nH]c(=S)[nH]c2cc1Cl |  | inactive: 1.49% |
| O=C(N/N=C/c1ccccc1OC(=O)c1ccc2c(c1)OCO2)c1cccc(F)c1 | inconclusive [cytotoxic, single point] |  |
| COc1ccc(COc2cc(-c3cccc(OC)c3)nc3ccc(NC(=O)c4ccc(Cl)cc4)cc23)cc1 | inconclusive [cytotoxic, partial curve] |  |
| CCn1c(SCC(=O)Nc2cc(Cl)ccc2OC)nnc1C1CC1 |  | inactive: 6.9% |
| COc1ccc(C(C)(O)c2nc(-c3ccccc3)cs2)cc1 (centres undefined) | active: 16.4 µM |  |
| CCc1nc2ccc(C(=O)NCc3ccc4c(c3)OCO4)cn2c1N(C)CCC(C)C | inconclusive [cytotoxic, single point] |  |
| COc1ccc(OC)c(NC(=O)Nc2cc(NC(=O)Nc3cc(OC)ccc3OC)c(C)nc2C)c1 | active: 23.1 µM |  |
| Cc1ccc(-n2ccc(=O)c(-c3ccnc(SCc4cccc(Cl)c4)n3)n2)cc1 | inconclusive [cytotoxic, single point] |  |
| O=C(NC1CCCCC1)C(c1cccs1)N(Cc1cccs1)C(=O)c1cccs1 (centres undefined) | inconclusive [cytotoxic, single point] |  |
| CC(C)N1CCC1(C)C(=O)Nc1nccc2cccnc12 (centres undefined) |  | inactive: 2.39% |
| Cc1ccc2nc(N(CCCN(C)C)C(=O)c3ccc(S(=O)(=O)N4CCc5ccccc5C4)cc3)sc2c1 | active: 13 µM |  |
| COc1ccc(NC(=O)NNC(=O)c2cc3occc3n2C)c(OC)c1 |  | inactive: -7.48% |
| COC(=O)c1ccc(NC(=S)NC2CCCCC2C)cc1 (centres undefined) | inconclusive [cytotoxic, single point] |  |
| COc1cccc(-c2csc(N3CCN(C(=O)Nc4ccccc4OC)CC3)n2)c1 | inconclusive [rising, single point] |  |
| CCCC(=O)N1CCCC1(C)C(=O)Nc1ccc(OC(F)F)cc1 (centres undefined) | inconclusive [rising, single point] |  |
| O=C(NCC1CCCO1)c1ccc(C(=O)NCC2CCCO2)cc1 (centres undefined) |  | inactive: 11.2% |
| CCc1nc2ccc(C(=O)Nc3ccc(NC(C)=O)cc3)cn2c1N(C)CCC(C)C | inconclusive [cytotoxic, single point] |  |
| COc1ccc(NC(=O)c2ccc(Cl)nc2)cc1S(=O)(=O)N1CCCCC1 | inconclusive [cytotoxic, partial curve, poor fit] |  |
| OCCN1CCN(CC/C=C2/c3ccccc3Sc3ccc(C(F)(F)F)cc32)CC1 | active: 20.6 µM |  |
| C#CCNC(=O)C1=C[C@H](C(C)(C)C)C[C@H](OCc2ccc(CO)cc2)O1 |  | inconclusive: 2.2% [cytotoxic] |

| Structure (SMILES) | Potency | activity, negative = toxicity |
| --- | --- | --- |
| O=C(NC(NNc1ccc([N+](=O)[O-])cc1)(C(F)(F)F)C(F)(F)F)c1ccc(F)cc1 |  | inactive: -7.87% |
| COc1ccc(S(=O)(=O)N2CCOCC2)cc1NC(=O)Cc1ccc2c(c1)OCCO2 |  | inactive: -4.83% |
| COc1ccc(F)cc1C(=O)C1CCCN(Cc2cn(C)c3ccccc23)C1 (centres undefined) | inconclusive [cytotoxic, single point] |  |
| COc1cc2c(oc(=O)c3cc(C)cc(OC)c32)c2c(C3OC(C)C(O)C(C)(O)C3O)ccc(O)c12 (centres undefined) | inconclusive [cytotoxic, single point] |  |
| Cc1cc(Cl)n2nc(C)c(-c3ccc(Cl)cc3)c2n1 | active: 18.4 µM |  |
| Cc1cnc(N2C(=O)c3ccc([N+](=O)[O-])cc3C2=O)s1 |  | inactive: 11.9% |
| CCOc1ccc(-c2c(=O)n(OCC)c3ccccc3[n+]2[O-])cc1 |  | inactive: 5.96% |
| CCn1c(O)c(N=NC(=O)CNC(=O)c2ccccc2F)c2ccccc21 | inconclusive [cytotoxic, single point] |  |
| COc1ccc(C2=NOC(C(=O)N3CCCc4ccccc43)C2)cc1 (centres undefined) | inconclusive [cytotoxic, single point] |  |
| CCOc1ccc(Oc2c(/C=N/NC(=O)COc3ccccc3OC)c(C)nn2-c2ccccc2)cc1 | inconclusive [cytotoxic, single point] |  |
| CC(C)c1nc(N2CCN(C(=O)c3ccco3)CC2)c(C#N)c2c1COC(C)(C)C2 | inconclusive [cytotoxic, partial curve] |  |
| Cc1cccc(N2CC(C(=O)Nc3ccc(S(=O)(=O)Nc4nccs4)cc3)CC2=O)c1C (centres undefined) |  | inactive: 17.3% |
| Cc1ccccc1-c1nc(NCCN(C)C)nc2ccsc12 |  | inactive: 8.12% |
| CCOC(=O)CSC1=C(C#N)C(c2ccc(Cl)cc2)CC(=O)N1 (centres undefined) |  | inactive: -4.79% |
| C=CCn1c(SCc2ccc(C(=O)NCCO)cc2)nc2sc(C)c(C)c2c1=O | inconclusive [cytotoxic, partial curve] |  |
| COc1cc(C(F)(F)F)ccc1C(=O)NCCc1ccco1 | inconclusive [rising, single point] |  |
| c1ccc(COc2ccc(-c3cc4nc(NCCN5CCOCC5)ccn4n3)cc2)cc1 | active: 18.4 µM |  |
| CCC(C)C(NC(=O)OCc1ccccc1)C(=O)NC(Cc1ccc(O)cc1)C(=O)OC (centres undefined) |  | inactive: 15.8% |
| CCC(CO)Nc1nc2ccc(Cl)cc2c2ccccc12 (centres undefined) | active: 18.4 µM |  |
| COc1cccc(NC(=O)CN(C)C(=O)c2cccc(S(=O)(=O)N3CC4(C)CC3CC(C)(C)C4)c2)c1 (centres undefined) | inconclusive [cytotoxic, single point] |  |
| Cn1ccnc1CN1CCCCC1C(=O)Nc1ccc(Oc2cccnc2)cc1 (centres undefined) | inconclusive [cytotoxic, single point] |  |
| C=CCn1c(C)cc(C(=O)COc2ncnc3sccc23)c1C | inconclusive [cytotoxic, single point] |  |
| CCOc1cc(Cl)c(S(=O)(=O)NCCCn2ccnc2)cc1Cl | inconclusive [cytotoxic, partial curve] |  |

| Structure (SMILES) | Potency | activity, negative = toxicity |
| --- | --- | --- |
| C/C(=N\Nc1cc(-c2ccccc2)nc(-c2ccccc2)n1)c1ccc(O)c(C)c1 | active: 23.1 µM |  |
| O=[N+]([O-])c1ccc(Sc2n[nH]c(-c3ccc(Cl)cc3Cl)n2)nc1 | inconclusive [cytotoxic, single point] |  |
| COCC(=O)N1CCC(Oc2ccc(C(=O)N3CCN(C)C[C@@H]3C(C)C)cc2)CC1 |  | inactive: -3.09% |
| Cc1ccc(NC(=O)CSc2nnc(CNC(=O)C34CC5CC(CC(C5)C3)C4)n2-c2ccc(F)cc2)cc1 | inconclusive [cytotoxic, single point] |  |
| C[n+]1ccc(/C=C/c2cccs2)cc1 | inconclusive [cytotoxic, single point] |  |
| CN(C)c1ccc(-c2n(C)c3ccccc3[n+]2C)cc1 | active: 8.91 µM |  |
| O=C(NCc1ccc2c(c1)OCO2)c1ccc(COc2cc(Cl)ccc2Cl)o1 | inconclusive [cytotoxic, single point] |  |
| Cc1ccc(NC(=O)CN2C(=O)NC(C)(c3ccc(Cl)cc3)C2=O)cc1S(=O)(=O)N1CCOCC1 (centres undefined) | active: 13 µM |  |
| CCn1c2ccccc2c2cc(NC(=O)CSc3nnc(-c4cccc(F)c4)o3)ccc21 | inconclusive [cytotoxic, single point] |  |
| O=C(Nc1ccc(Cl)cc1)C1Cc2c(-c3ccccc3Oc3ccccc3)ccnc2O1 (centres undefined) | inconclusive [cytotoxic, single point] |  |
| CN(C)S(=O)(=O)c1ccc(C(=O)Nc2nnc(-c3cccs3)o2)cc1 | inconclusive [cytotoxic, single point] |  |
| O=C(Nc1ccc2c(c1)OCO2)c1cc(-c2ccc(O)cc2)on1 | active: 2.06 µM |  |
| Cc1cccc(C(=O)NNC(=O)c2c(O)c3ccccc3n(C)c2=O)c1 | inconclusive [cytotoxic, single point] |  |
| CC(C)N(C(C)C)S(=O)(=O)c1ccc(NN)nc1 | inconclusive [cytotoxic, partial curve] |  |
| CCOC(=O)c1c(C)n(-c2ccccc2)c2ccc(O)c(CN(C)C)c12 | inconclusive [cytotoxic, partial curve] |  |
| C=CCN=C1S/C(=C/c2cccc([N+](=O)[O-])c2)C(=O)N1CC=C | inconclusive [cytotoxic, single point] |  |
| Cc1cc(C)c2nc(-c3cccc(Cl)c3)c(C)c(C(=O)N3CCOCC3)c2c1 | inconclusive [cytotoxic, single point] |  |
| COc1ccccc1N1CCN(C(=O)CN(c2ccccc2OC)S(=O)(=O)c2ccccc2)CC1 |  | inactive: -9.06% |
| COc1ccc(NC(=O)CN(C)C(=O)CNC(=O)Cc2cccc3ccccc23)cc1 |  | inactive: 0.345% |
| CC(C)C[C@@H](CN1CCC[C@@H]1CN1C(=S)NC[C@@H]1Cc1ccccc1)N1C[C@H](Cc2ccc(O)cc2)N(CCc2ccccc2)C1=S | inconclusive [cytotoxic, single point] |  |
| CC1(Cc2ccc3c(c2)OCO3)C(=O)Nc2ccc(-c3cccc(C(F)(F)F)c3)cc21 (centres undefined) | inconclusive [cytotoxic, single point] |  |
| COc1ccc(-c2cc(=O)oc3cc(OC(C)C(=O)Nc4ccc(CN5CCOCC5)cc4)ccc23)cc1 (centres undefined) | inconclusive [cytotoxic, single point] |  |
| Cc1ccc(-c2nc(CSc3nc4ccccc4c(=O)n3C)cs2)cc1 |  | inactive: -1.15% |
